# In patent publication CN113388028A (SHENZHEN FUTIAN GEWU ZHIKANG PATHOGEN RES INSTITUTE; …, dated 2021):
# B1: human ACE2-hFc([…]) (Fc fusion)
# chain: not shown
# Target: S1RBD-his (SARS-CoV-2 S1蛋白RBD与His的融合蛋白) (SARS-CoV-2)
binder,measurement,value
B1,Kd,0.0139 µM
same,koff,0.00373 s⁻¹
same,kon,268000 M⁻¹ s⁻¹
